Test results published in PubChem BioAssay AID624296 (National Center for Advancing Translational Sciences (NCATS), 2012).
Among all 350,000 compounds or so, about 9,900 (2.8%) were called active. Inconclusive means that the source gave no clear call. Such entries were picked first, then a sample of the others. Calls follow the shape of the dose curve; as a rule, active = well fitted activation curve with a large enough effect; inconclusive = small, poorly fitted or top-dose-only effect; inactive = no such curve, though single readings can be large or run the other way. No potency is given beside an inconclusive call; the fits are too rough.

Experiment: A quantitative high throughput screen for small molecules that induce DNA re-replication in MCF 10a normal breast cells. Also: nearly all actives have a fitted effect of over 50% in size. As to activity, positive = re-replication: % of control where 0% means no effect.
Conditions: MCF 10A DNA re-replication, Hoechst nuclear intensity, 48 h; activity, positive = re-replication: at 46.1 µM (top of the series)
Potency is read from the fitted curve at half-maximal effect; tags tell the direction and shape of the fitted curve.

| SMILES | Potency | activity, positive = re-replication |
| --- | --- | --- |
| COc1cc(C(=O)Nc2ccc(-c3nnc(-c4ccco4)o3)cc2)cc(OC)c1OC | inconclusive [activator, single point] | – |
| O=C(Nc1ccccc1)C1=C[C@H](c2ccc(C(F)(F)F)cc2)C[C@H](OCCCCO)O1 | inconclusive [activator, single point] | – |
| O=C(Cc1ccccc1)NCCS(=O)(=O)N1CCN(c2cccc(Cl)c2)CC1 | inactive | – |
| O=C(Nc1cc(Sc2nc3ccccc3s2)cc([N+](=O)[O-])c1)c1ccccc1 | inconclusive [activator, partial curve, poor fit] | – |
| O=C1OCC2=C1C(c1ccc3c(c1)OCO3)c1cc3c(cc1O2)OCO3 (stereo not given) | active: 8.2 µM | – |
| CC1(OC(=O)C2CCCC2)C(=O)C=C2C=C(c3ccsc3)N(C3CCCCC3)C=C2C1=O (stereo not given) | inactive | – |
| COc1ccc(-c2c(C#Cc3ccsc3)c3ccccc3n2C)cc1 | inconclusive [activator, partial curve, poor fit] | – |
| C=CCn1c(SCC(=O)Nc2ccc(N3CCOCC3)cc2)nnc1-c1ccco1 | inactive | – |
| Cc1cc(C(=O)N/N=C/C=C/c2ccc3c(c2)OCO3)n[nH]1 | inactive | – |
| CN(C)CC1CCC/C(=C/c2ccc(Cl)cc2)C1=O (stereo not given) | active: 18.4 µM | – |
| CN(C(=O)c1ccc2c(c1)OCO2)C1(C(=O)NC2CCCCC2)CCCCC1 | inactive | – |
| COc1ccc(/C=C2/SC(=S)N(Cc3ccccc3)C2=O)cc1O | inconclusive [activator, single point] | – |
| CC#CCN1c2ccccc2[C@]23C[C@@H](C(=O)OC)N(C(C)=O)C2=NC(C(=O)OC)=C(C(=O)OC)[C@H]13 | inconclusive [activator, partial curve] | – |
| Cc1cc(C)cc(OCC(=O)OCC(=O)c2ccc3c(c2)NC(=O)CO3)c1 | inconclusive [activator, single point] | – |
| CC(C)Cc1ccc(C(C)C(N)=NCCc2ccccc2)cc1 (stereo not given) | inconclusive [activator, partial curve, poor fit] | – |
| CC(=O)N1CCN(C(=S)Nc2ccc(Oc3ccccc3)cc2)CC1 | inconclusive [activator, single point] | – |
| CCC(=O)NC(=S)Nc1ccc(NC(=S)NC(=O)c2ccc(C)cc2)cc1 | inactive | – |
| OCCC1CN(Cc2ccc(F)cc2)CCN1CCCc1ccccc1 (stereo not given) | inactive | – |
| CCCCSc1nc(O)c(C2OC(=O)c3c2ccc(OC)c3OC)c(=O)n1-c1ccccc1 (stereo not given) | inconclusive [activator, partial curve, poor fit] | – |
| Cc1ccccc1CNC(=O)c1cc(COc2ccc(F)cc2F)on1 | inconclusive [activator, single point] | – |
| O=C(CSc1n[nH]c(-c2cccs2)n1)NCc1ccc2c(c1)OCO2 | inactive | – |
| COC(=O)c1c(NC(=O)/C=C/C(=O)O)sc(C)c1-c1ccc(C)c(C)c1 | active: 16.4 µM | – |
| Cc1cc(NS(=O)(=O)c2ccc(C3CCCCC3)cc2)no1 | inconclusive [activator, single point] | – |
| O=C(Nc1ccccc1F)c1ccc(CN2CCc3ccccc3C2)cc1 | inconclusive [activator, partial curve, poor fit] | – |

| SMILES | Potency | activity, positive = re-replication |
| --- | --- | --- |
| Cn1ccnc1SCC(=O)c1ccc(O)cc1 | inactive | – |
| CCC(=O)NC(c1ccc([N+](=O)[O-])cc1)c1c(O)ccc2ccccc12 (stereo not given) | inconclusive [activator, full curve, poor fit] | – |
| CC(C)[C@H](NC(=O)c1ccc(Cl)c([N+](=O)[O-])c1)C(=O)NCc1ccc(Cl)cc1Cl | inconclusive [activator, single point] | – |
| O=C(c1ccc(F)cc1)C1CCN(Cc2cn[nH]c2-c2ccc(F)cc2)CC1 | inconclusive [activator, partial curve, poor fit] | – |
| COc1ccc(C(c2nnnn2C2CCCC2)N2CCC(C)CC2)c(OC)c1 (stereo not given) | inconclusive [activator, single point] | – |
| CCCN(CCC)S(=O)(=O)c1ccc(NC(=O)c2cc(C(=O)OC)cc([N+](=O)[O-])c2)cc1 | inactive | – |
| CCCCc1nnc(NC(=O)CN2C(=O)c3ccccc3C2=O)s1 | inconclusive [activator, single point] | – |
| C(=N\Nc1nc2ccccc2[nH]1)/c1cccs1 | inactive | – |
| CC(C)C(OC(=O)c1ccco1)C(=O)NCc1cccs1 (stereo not given) | inactive | – |
| O=C(NCc1ccco1)C1CC(c2cc(C(F)(F)F)cc(C(F)(F)F)c2)=NO1 (stereo not given) | active: 6.51 µM | – |
| Cc1ccc(-c2nnnn2-c2ccc(C)cc2)cc1 | inactive | – |
| CC(C)(C)c1ccc(CN2N=C(/C=C/c3ccccc3)CCC2=O)cc1 | active: 20.6 µM | – |
| COc1ccc(/C=N/NC2=NS(=O)(=O)c3ccccc32)cc1OC | inactive | – |
| CSc1ccc(-c2nc(CN3CCCCC3c3cccnc3)c(C)o2)cc1 (stereo not given) | inconclusive [activator, partial curve] | – |
| COc1ccc(NC(=O)CCN2CCN(c3ccccc3F)CC2)c(OC)c1 | inactive | – |
| O=C(CCNC(=O)c1ccc([N+](=O)[O-])cc1)Nc1nc2ccccc2[nH]1 | inactive | – |
| COc1ccc(S(=O)(=O)n2nc(OC(=O)c3ccccc3Br)cc2N)cc1 | inconclusive [activator, single point] | – |
| COc1ccc(C(=O)NCCNC(=O)c2ccc(OC)cc2)cc1 | inactive | – |
| C=CCc1cccc(/C=N/NC(=O)c2ccc3nc[nH]c3c2)c1O | active: 20.6 µM | – |
| O=S(=O)(NCCCCCNS(=O)(=O)c1c(F)cccc1F)c1ccc2c(c1)OCCO2 | inactive | – |
| CCCCNC(=O)[C@]1(C)CCC[C@@]2(C)C3CC[C@@]4(C)C[C@]3(CCC21)CC4=O (stereo not given in full) | inactive | – |
| C=C[C@@H]1c2ccccc2N(S(=O)(=O)c2ccc(C)cc2)[C@H](c2ccc(OC(C)=O)cc2)C1(C#N)C#N | inconclusive [activator, single point] | – |
| CCCCCCCCCC(=O)N/N=C/c1ccc(C)s1 | active: 16.4 µM | – |
| Cc1cccc(NC(=O)C2COc3ccccc3O2)n1 (stereo not given) | inconclusive [activator, partial curve, poor fit] | – |

| SMILES | Potency | activity, positive = re-replication |
| --- | --- | --- |
| COc1ccc(CNC(=O)C2CSC(=O)C2)cc1 (stereo not given) | inconclusive [activator, single point] | – |
| COc1ccccc1OCc1ccc(C(=O)N2N=C(C(F)F)CC2(O)C(F)F)o1 (stereo not given) | inconclusive [activator, single point] | – |
| Cc1ccccc1N1C(S)=C(C#N)C(=O)NC12CCCCC2 | inconclusive [activator, single point] | – |
| C#CCOCCOCCOCCNc1nc(OC)nc(N2CCN(C(=O)[C@H](CCC(=O)O)n3cc(C(N)CO)nn3)CC2)n1 (stereo not given in full) | inconclusive [activator, full curve, poor fit] | – |
| COc1ccc(NS(=O)(=O)c2cc(NC(=O)C3CC3)ccc2N2CCCCC2)cc1 | inconclusive [activator, single point] | – |
| CC(Oc1cccc(Cl)c1)C(=O)Nc1ccc(N2CCOCC2)cc1N1CCOCC1 (stereo not given) | inconclusive [activator, partial curve, poor fit] | – |
| COc1ccc(CCNC(=O)c2cc3c(=O)n4ccccc4nc3n(CCCN3CCOCC3)c2=N)cc1 | – | inconclusive: 214% [activator] |
| CC(C)CN1CCN(Cc2cnc(-c3ccc(Cl)cc3)nc2)CC1CCO (stereo not given) | inactive | – |
| CC1=CC(C)[C@H](/C=N/n2c(=O)[nH]c3c([nH]c4ccc(Br)cc43)c2=O)C(C)C1 (stereo not given in full) | inconclusive [activator, full curve, poor fit] | – |
| CN(C)C(=S)N=Nc1[nH]c2ccccc2c1O | inconclusive [activator, single point] | – |
| Cc1ccccc1NC(=S)N/N=C1\CC(C)(C)Oc2ccc(O)cc21 | inactive | – |
| COc1ccccc1-c1sc2ccccc2c1C#CC1(O)CCCCC1 | active: 18.4 µM | – |
| COc1ccc2c(c1)CCc1cc(C(=O)N3CCN(c4ccc(N5CCOCC5)nn4)CC3)sc1-2 | inconclusive [activator, single point] | – |
| CC(=O)CC(=O)Nc1ncc(C(F)(F)F)cc1Cl | inactive | – |
| Cc1cccc(C(=O)Nc2nnc(SCC(=O)Nc3ccc4c(c3)oc3ccccc34)s2)c1 | inconclusive [activator, single point] | – |
| Cc1ccc(-n2cc(CN3CCC(O)(c4ccccn4)CC3)c(-c3ccc(F)cc3)n2)cc1 | inconclusive [activator, single point] | – |
| CCOc1ccc(S(=O)(=O)NCc2ccccn2)cc1NC(=O)c1ccccc1 | inconclusive [activator, full curve, poor fit] | – |
| CCc1ccccc1OCC(=O)Nc1ccc(C)c(S(=O)(=O)N2CCCCCC2)c1 | inactive | – |
| CCOc1cc(N2CCOCC2)c(OCC)cc1NC(=O)Cc1ccccc1OC | inconclusive [activator, single point] | – |
| CN(C)c1ccnc(Oc2ccc(C(C)(C)C)cc2)c1C#N | inconclusive [activator, partial curve, poor fit] | – |
| CCOc1cccc(C(=O)Nc2ccc(NC(=O)c3cc4ccccc4o3)c(OC)c2)c1 | inconclusive [activator, partial curve, poor fit] | – |
| Cn1c(C(=O)O)ccc1S(=O)(=O)N(Cc1ccccc1)Cc1ccccc1 | inconclusive [activator, single point] | – |
